Sequences with one replicate were seen in a single cluster, so their values are uncertain.
System: ATP
Test: switch fluorescence ratio, 500 uM ATP over buffer (Cy3 cluster intensity, sum of 5 cycles each) (fold (ratio)); higher = stronger signal-on switching upon ATP binding; sequences stand for … in TCGTCGGCAGCGTCAGATGTGTATAAGAGACAGTTTTTTTTTTTTTTTTTTTTTTTTT…TC
Details: aptamer strand: ATP DNA aptamer (quencher-CACCTGGGGGAGTATTGCGGAGGAAGG + anchor), 100 nM annealed; ATP concentration: 500 uM; one replicate
In short: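 Imaging in selection buffer was followed by imaging after 15 min with 500 uM ATP at 22 °C, for Cy3-labelled switching-strand clusters annealed to 100 nM quencher-labelled ATP aptamer on a modified Illumina MiSeq flow-cell. Five of these buffer/ATP cycles ran, separated by NaOH stripping and re-annealing. The fluorescence ratio per cluster is summed target-cycle over summed buffer-cycle Cy3 intensity, averaged per switch-domain sequence; clusters outside 100-1000 RFU were removed.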
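Note: ATP exposure 15 min at 22 °C before imaging.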

Sequence | switch fluorescence ratio
TAGGGCAAAC | 1.46
TACTCAAGTA | 1
CGTCGCTTAT | 1.21
TTAAGCATAT | 1.2
GAAAATAATG | 0.999
CAGAGACGTG | 1.02
TACCACCTTT | 1.12
GCTGACTGTA | 1.12
GCACTCGAAA | 1.08
GACCATGCTC | 1.04
TGGCGCAGAT | 1.05
AGCTGCGAGC | 0.971
GGTGTGGTCG | 0.975
ATGAAGGTTG | 1.06
ACCTATAGTG | 1.01
GTAACCGTCC | 2.46
AGCGTGAAA | 0.99
AGGGACTACC | 0.988
GTGCTGTTTC | 0.959
ACTTGATGTT | 1.05
TGGTCAATCG | 1
ATTGTGACTT | 0.964
GGCAGAGC | 1.01

Sequence | switch fluorescence ratio
GGTCTTGGCG | 0.999
CTAGATCTTT | 0.959
TAGGTAGCCT | 1.05
GTTCCCGAGA | 1.05
GATAGAGTCA | 0.966
GATGGTGTCC | 1.06
GTGCCCTTCA | 1.04
TTCCGGCATG | 1.07
GGTGGGTTAT | 0.989
TGACGTCGGA | 0.944
CCGCTGCGGC | 1.66
TGTCATG | 0.992
AAGGGGAACC | 0.968
GTGGCGTATC | 0.992
GCCCACCGGG | 1.02
TAGAGTAATT | 1.01
TGCCTGAGGT | 1.02
ATCGACTAAG | 1.02
AAGCACGGGC | 0.985
ACCCCTACT | 1.33
TTTAGGTGGA | 1.05
AACCGGGCGC | 1.1
TTCTTGTGTA | 0.963

Sequence | switch fluorescence ratio
TGGAGACCAG | 0.994
CATTCCCTGC | 1.25
TGCGTGAGAG | 1.07
GGGTTTAAAG | 0.924
TGAGACGTCG | 1.03
GGGTGTACG | 0.992
AATCGTAC | 1.08
GGGAACTTCG | 1.01
GGGTTACTTG | 0.956
GGTTGTCGTT | 1.04
AGATCAACTC | 1.01
ACATTACG | 1.48
GAAAGAACGT | 1.02
TTCACAACCA | 1.02
CGGCTGTAGG | 1.03
GGCTATCAGC | 1.01
GATGACCCCG | 1.05
TAGTTTTATT | 0.955
ATGCCTACGG | 1.02
TCCGAAAGCA | 2.61
TAGAAGGAGC | 1
AAATCTGCCG | 0.968
TAACTTAAAT | 1.02

Sequence | switch fluorescence ratio
TGTCAGGGCT | 1.01
TATGTACT | 1.03
TATATTATCT | 1.05
ATCGAATGGG | 0.975
CAGGAGGGTA | 1.01
CTAAGACGGC | 0.993
GTAGACAGGG | 1.06
AGAAATGCGA | 1.12
CAGTTGGTGG | 0.993
GCCAATCACA | 1.05
ACGGCATGCG | 1.02
CTTTATGAGT | 1.06
GAGAAACCTA | 1.13
TTATCCGAGC | 1.11
GTTAGACCGA | 1.03
GCACATTGCG | 0.983
ACGGTGTGGA | 0.999
GCGGAGCGAT | 1.8
CGTCGACATG | 0.947
TTTCGGTCGA | 0.995
TAATGAAATG | 0.981
GCTGCCGGTA | 1.04
GATCGATGGC | 1.01

Sequence | switch fluorescence ratio
GGAATTTACG | 1.04
CCGGTCACCC | 1.24
TCCCAAAACG | 0.998
CATAGAAATG | 0.992
AGATTCTTTG | 1.02
ATTTTGTCGA | 0.933
AAAGCGGGCG | 1.05
CATGGGTATG | 0.958
CTAGTTTTGT | 1.04
TTATGAATCG | 1.05
GGCTGTTTTG | 0.989
GTGGGGTTCA | 0.981
ATGAGGCCT | 1.04
CAAATCTAA | 0.973
TAGGCAAATG | 0.995
CACGGATTTG | 1.02
ATACTTGGTC | 1.04
CCGGTGTTTA | 1.02
TTCGCCACT | 0.949
AGACTAGAG | 0.97
AATGTCAGGG | 1
GAGCTCTGCA | 1.06
GGTTCTAGCC | 0.966

Sequence | switch fluorescence ratio
TACGATGTC | 1.03
CATGCTCGGT | 0.996
TTAGGTTTTC | 0.995
AGAAGAGAA | 0.98
AAACGGCCAC | 1.23
CAAGCCCGGG | 1.17
GAAGACTAAA | 0.989
TCGGCTTAAG | 0.967
TTTAGCATTA | 1.1
GGCAGCTCGC | 0.961
GTAATGTTTT | 0.978
AAGTTCTAG | 0.981
CGCTTCTTTG | 1.02
AGGTCTGGTG | 0.995
AAGGACCGAC | 1.44
TATCCAATAG | 1.13
TCGTGCCTA | 1.02
TATAGCGCCA | 1.01
CCCATTAGTG | 1.13
TCCTCTTTGT | 1.05
ACCCTGCGGG | 1.02
TTACCAAGGC | 1.13
AGATCCTTAG | 0.976

Sequence | switch fluorescence ratio
AGATCCTGCC | 1.69
AACCGCGTGC | 2.24
GATGGGTCAC | 0.979
CGAATGGAA | 1.05
CACAGAATTT | 1.03
ACCCGAATTA | 1.05
CTAGTGCGTG | 0.96
ATGGTATTT | 1.04
TGATGGAGGT | 0.994
CTGTCGCTTT | 1.05
TTCACTCGAA | 1
CCTGAAAACT | 1.03
ACTCTGCTCG | 1.07
CTCGGCTACG | 1.08
AGATAGCACT | 1.06
GCTCTTATCT | 0.988
CAGCCGGAGT | 1.04
GCGTAAGGGC | 0.968
CATTTAAAA | 0.975
ATACCCGTTC | 0.987

— the supplement of paper PMC10126150
